The assay concerns the target Nonstructural protein 3 (Zika virus) (UniProt A0A024AXB9).
Setting [1] is: PRVABC59, Concentration 15.0 uM, Number of replicates 1.0.
Where [2] appears, read: PRVABC59, Concentration 50.0 uM, Number of replicates 1.0.
Setting [3] is: PRVABC59, Concentration 10.0 uM, Number of replicates 1.0.

About 160 (5.9%) of roughly 2,700 compounds showed an effect of 50% or more. This is one part of the list.

A word on the inhibition: it is the relative decrease from the control value, in per cent.

Chain of UniProt A0A024AXB9 (A0A024AXB9 as listed by the source): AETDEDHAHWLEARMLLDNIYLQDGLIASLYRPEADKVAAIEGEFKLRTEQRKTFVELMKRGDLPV

Turning to `N#Cc1cc(Cl)ccc1NC(=O)c1cc(Cl)ccc1NS(=O)(=O)c1ccc(Oc2ccccc2Cl)cc1`, the inhibition under setting [1] was 24.2%.

Turning to `O=Cc1ccc(N2CCC(C(=O)NCCc3ccc4ccccc4c3)CC2)cc1`, the inhibition under setting [2] stood at 19.9%.

As for `Cc1cc(CO)c2cccc(Nc3cc(O)[nH]n3)c2n1`, the inhibition came to 18.3% (PRVABC59, Concentration 49.95 uM, Number of replicates 2.0, Standard deviation 1.761368724187627 %) and 23.8% (PRVABC59, Concentration 99.9 uM, Number of replicates 2.0, Standard deviation 1.139118047569397 %).

Consider `O=Cc1ccc(N2CCC(C(=O)NCCc3cc(Cl)ccc3Cl)CC2)cc1`, for which the inhibition under setting [2] turned out to be 3.45%.

For the compound `O=c1[nH]cc(Cl)cc1CN1CC[C@H](c2c[nH]c3ccccc23)C1`, the inhibition is -0.136% (PRVABC59, Concentration 49.5 uM, Number of replicates 2.0, Standard deviation 1.7352961779366058 %); 5.66% (PRVABC59, Concentration 99.01 uM, Number of replicates 2.0, Standard deviation 1.511250443335849 %); 14.3% (PRVABC59, Concentration 198.0 uM, Number of replicates 2.0, Standard deviation 1.5408415770879536 %).

Consider `CC(C)(C)c1ccc(CNC(=O)c2cc(Cl)ccc2NS(=O)(=O)c2ccc(Oc3ccccc3Cl)cc2)cc1`, for which the inhibition under setting [1] came out at 18.6%.

In the case of `Cc1cc(CO)c2cccc(Cc3ccccc3NC(=O)Cc3nnc(C)[nH]3)c2n1`, the inhibition is 4.1% (PRVABC59, Concentration 49.95 uM, Number of replicates 2.0, Standard deviation 1.0993669945152562 %) and 10.8% (PRVABC59, Concentration 99.9 uM, Number of replicates 2.0, Standard deviation 0.855063124296647 %).

With `O=C(Nc1ccc(O)cc1[N+](=O)[O-])c1cc(Cl)ccc1NS(=O)(=O)c1ccc(Oc2ccccc2Cl)cc1`, the inhibition under setting [1] worked out at 32.2%.

As for `CCN(CC)C(=O)C1CCN(C(=O)c2cc(Cl)ccc2NS(=O)(=O)c2ccc(Oc3ccccc3Cl)cc2)CC1`, the inhibition under setting [1] was -1.16%.

On to `CCCCCN(CCCCC)C(=O)c1cc(Cl)ccc1NS(=O)(=O)c1ccc(Oc2ccccc2Cl)cc1`, for which the inhibition under setting [1] was 19.4%.

`COc1cccc(OCCCNC(=O)c2cc(Cl)ccc2NS(=O)(=O)c2ccc(Oc3ccccc3Cl)cc2)c1`: the inhibition under setting [1] is 14.5%.

Turning to `Cc1ccsc1CN(CC(C)C)C(=O)C1CCN(c2ccc(C=O)cc2)CC1`, the inhibition under setting [2] is 28.3%.

On to `COc1ccc(F)cc1-c1ccccc1C(=O)Nc1cnn(C)c1`, for which the inhibition (PRVABC59, Concentration 49.5 uM, Number of replicates 2.0, Standard deviation 2.786855749304864 %) was -3%; the inhibition (PRVABC59, Concentration 99.01 uM, Number of replicates 2.0, Standard deviation 3.2540561676160196 %) was -2.51%; the inhibition (PRVABC59, Concentration 198.0 uM, Number of replicates 2.0, Standard deviation 1.7244181606296412 %) is -2.19%.

Regarding `C[C@H](NC(=O)c1cc(Cl)ccc1NS(=O)(=O)c1ccc(Oc2ccccc2Cl)cc1)c1ccc(N2CCOCC2)cc1`, the inhibition under setting [1] was 18.7%.

Take `O=C(c1cc(Cl)ccc1NS(=O)(=O)c1ccc(Oc2ccccc2Cl)cc1)N1CCN(C(=O)C2CC2)CC1`: under setting [1], the inhibition was 3.67%.

Consider `CN(C[C@H](O)[C@@H](O)[C@H](O)[C@H](O)CO)C(=O)C1CCN(c2ccc(C=O)cc2)CC1`, for which the inhibition under setting [2] was 14.4%.

`O=Cc1ccc(N2CCC(C(=O)N(CC(F)(F)F)CC(F)(F)F)CC2)cc1`: the inhibition under setting [2] was 20.6%.

Take `CN(C)CCN(Cc1ccccc1)C(=O)C1CCN(c2ccc(C=O)cc2)CC1`: the inhibition under setting [2] was determined as 25.2%.

As to `COc1cccc([C@H](C)NC(=O)c2cc(Cl)ccc2NS(=O)(=O)c2ccc(Oc3ccccc3Cl)cc2)c1`, the inhibition under setting [1] amounted to 33.8%.

For the compound `COc1cccc(CCNC(=O)C2CCN(c3ccc(C=O)cc3)CC2)c1OC`, the inhibition under setting [2] stood at 27.5%.

For `O=C(NCc1c(F)cccc1C(F)(F)F)c1cc(Cl)ccc1NS(=O)(=O)c1ccc(Oc2ccccc2Cl)cc1`, under setting [1], the inhibition is 36.4%.

Turning to `O=Cc1ccc(N2CCC(C(=O)NC3CCN(Cc4ccccc4)CC3)CC2)cc1`, under setting [2], the inhibition amounted to 26.4%.

Regarding `c1cnc2c(C3CCN(Cc4cnn5ccccc45)CC3)c[nH]c2c1`, the inhibition (PRVABC59, Concentration 49.5 uM, Number of replicates 2.0, Standard deviation 0.057048794032587856 %) worked out at 1.91%; the inhibition (PRVABC59, Concentration 99.01 uM, Number of replicates 2.0, Standard deviation 0.7157030524088295 %) came out at 5.72%; the inhibition (PRVABC59, Concentration 198.0 uM, Number of replicates 2.0, Standard deviation 2.453097637639096 %) was 10.7%.

On to `O=C(Nc1cccc(C(F)(F)F)n1)c1cc(Cl)ccc1NS(=O)(=O)c1ccc(Oc2ccccc2Cl)cc1`, for which the inhibition under setting [1] is 23.7%.

As to `O=C(c1cc(Cl)ccc1NS(=O)(=O)c1ccc(Oc2ccccc2Cl)cc1)N1CCC(c2nnc3n2CCCCC3)CC1`, the inhibition under setting [1] worked out at 0.963%.

On to `O=C(NC[C@H]1COc2ccccc2O1)c1cc(Cl)ccc1NS(=O)(=O)c1ccc(Oc2ccccc2Cl)cc1`, for which the inhibition under setting [1] worked out at 37.9%.

For the compound `O=C(Nc1cccc2cccnc12)C1CCNCC1`, the inhibition (PRVABC59, Concentration 49.95 uM, Number of replicates 2.0, Standard deviation 0.5440976068370852 %) is 42.6% and the inhibition (PRVABC59, Concentration 99.9 uM, Number of replicates 2.0, Standard deviation 0.5440976068370852 %) was 92%.

Turning to `Cc1c(Cl)ccc(CNCc2nnc3ccccn23)c1O`, the inhibition was -2.02% (PRVABC59, Concentration 49.5 uM, Number of replicates 2.0, Standard deviation 0.6675735430455111 %); -0.158% (PRVABC59, Concentration 99.01 uM, Number of replicates 2.0, Standard deviation 1.8143878580340882 %); 0.893% (PRVABC59, Concentration 198.0 uM, Number of replicates 2.0, Standard deviation 1.5352512085647565 %).

For the compound `CCN(Cc1cnn(CC)c1)C(=O)c1cc(Cl)ccc1NS(=O)(=O)c1ccc(Oc2ccccc2Cl)cc1`, under setting [1], the inhibition was 19.6%.

Take `CCS(=O)(=O)c1ccc(CNC(=O)C2CCN(c3ccc(C=O)cc3)CC2)cc1`: the inhibition under setting [3] is 21.1%.

As to `C[C@@H](CCNC(=O)c1cc(Cl)ccc1NS(=O)(=O)c1ccc(Oc2ccccc2Cl)cc1)N1CCOCC1`, under setting [1], the inhibition came to 4.81%.

For the compound `O=C(c1cc(Cl)ccc1NS(=O)(=O)c1ccc(Oc2ccccc2Cl)cc1)N1CCN(c2ccccc2Cl)CC1`, under setting [1], the inhibition was 6.58%.

In the case of `Cc1cc(N)c2cccc(Br)c2n1`, where the note is “PRVABC59, Concentration 99.9 uM, Number of replicates 2.0, Standard deviation 11.691793041285315 %”, the inhibition is -5.99%.

`O=Cc1ccc(N2CCC(C(=O)NCc3ccc(Br)cn3)CC2)cc1`: the inhibition under setting [3] was 22.1%.

Regarding `CN(CCc1ccccc1F)C(=O)c1cc(Cl)ccc1NS(=O)(=O)c1ccc(Oc2ccccc2Cl)cc1`, the inhibition under setting [1] is 27.9%.

As for `O=C(NCc1cccc([N+](=O)[O-])c1)c1cc(Cl)ccc1NS(=O)(=O)c1ccc(Oc2ccccc2Cl)cc1`, the inhibition under setting [1] amounted to 43.8%.

As for `CC(C)Nc1nc2cc(NCc3cccc(C(N)=O)c3)ccc2[nH]1`, the inhibition (PRVABC59, Concentration 49.5 uM, Number of replicates 2.0, Standard deviation 1.847825397474994 %) was -6.97% and the inhibition (PRVABC59, Concentration 99.01 uM, Number of replicates 2.0, Standard deviation 1.776755358467196 %) was -9.42%.

Turning to `Cc1cc(C)nc(CCNC(=O)C2CCN(c3ccc(C=O)cc3)CC2)n1`, the inhibition under setting [2] was found to be 15.6%.

Regarding `CC(C)(CO)NC(=O)c1cc(Cl)cc(NC(=O)c2ccc(CO)s2)c1`, the inhibition reads like this: (PRVABC59, Concentration 49.5 uM, Number of replicates 2.0, Standard deviation 3.0337727241311483 %) 1.34%; (PRVABC59, Concentration 99.01 uM, Number of replicates 2.0, Standard deviation 3.2258798614215776 %) 2.04%; (PRVABC59, Concentration 198.0 uM, Number of replicates 2.0, Standard deviation 3.5796614008083747 %) 2.59%.

On to `N#Cc1cccc(NC(=O)[C@@H](NC(=O)c2ccc(Oc3ccc(C(F)(F)F)cc3)cc2)c2ccc(OCc3ccccc3)cc2)c1`, for which the inhibition is -3.85% (PRVABC59, Concentration 49.5 uM, Number of replicates 2.0, Standard deviation 1.5222408241409437 %); 1.37% (PRVABC59, Concentration 99.01 uM, Number of replicates 2.0, Standard deviation 0.6339358903678755 %); 0.989% (PRVABC59, Concentration 198.0 uM, Number of replicates 2.0, Standard deviation 2.432405937390612 %).

As to `O=C(NCc1cc(Cl)cc(Cl)c1)c1cc(Cl)ccc1NS(=O)(=O)c1ccc(Oc2ccccc2Cl)cc1`, under setting [1], the inhibition came out at 27.8%.

`O=C(O)c1cccc(NC(=O)c2ccncc2)c1`: the inhibition runs as follows: (PRVABC59, Concentration 49.5 uM, Number of replicates 2.0, Standard deviation 3.2025175998741853 %) -2.1%; (PRVABC59, Concentration 99.01 uM, Number of replicates 2.0, Standard deviation 1.8056969671368994 %) -0.387%; (PRVABC59, Concentration 198.0 uM, Number of replicates 2.0, Standard deviation 2.642129119196154 %) 3.46%.

Turning to `CC(C)(CNC(=O)C1CCN(c2ccc(C=O)cc2)CC1)c1cccc(Cl)c1`, the inhibition under setting [2] was -1.58%.

Regarding `O=C(c1cc(Cl)ccc1NS(=O)(=O)c1ccc(Oc2ccccc2Cl)cc1)N1CC(OCc2ccccc2)C1`, under setting [1], the inhibition is -2.94%.

The values are drawn from ChEMBL document CHEMBL5606458, “ASAP - ZIKV NS2B-NS3 protease fluorescence single point” (2024).
